Assay results taken from article PMC6919601, “Identification of Plasmodium dipeptidyl aminopeptidase allosteric inhibitors by high throughput screening” (PLoS ONE, 2019).
About 230 (0.21%) of roughly 110,000 compounds showed an effect of 50% or more. Some of the results follow.

Molecular target: DPAP1 (Plasmodium falciparum, UniProt Q8IIJ9)
Assay: primary screen, percent inhibition; read by cleavage of a fluorogenic dipeptide substrate; higher = more effect of the substance
Design: species or system P. falciparum D10 trophozoite lysates; single well
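Further: 30 min substrate incubation versus DMSO and 10 µM JCP410 controls.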

Sequence of DPAP1 (Q8IIJ9 whole entry, looked up): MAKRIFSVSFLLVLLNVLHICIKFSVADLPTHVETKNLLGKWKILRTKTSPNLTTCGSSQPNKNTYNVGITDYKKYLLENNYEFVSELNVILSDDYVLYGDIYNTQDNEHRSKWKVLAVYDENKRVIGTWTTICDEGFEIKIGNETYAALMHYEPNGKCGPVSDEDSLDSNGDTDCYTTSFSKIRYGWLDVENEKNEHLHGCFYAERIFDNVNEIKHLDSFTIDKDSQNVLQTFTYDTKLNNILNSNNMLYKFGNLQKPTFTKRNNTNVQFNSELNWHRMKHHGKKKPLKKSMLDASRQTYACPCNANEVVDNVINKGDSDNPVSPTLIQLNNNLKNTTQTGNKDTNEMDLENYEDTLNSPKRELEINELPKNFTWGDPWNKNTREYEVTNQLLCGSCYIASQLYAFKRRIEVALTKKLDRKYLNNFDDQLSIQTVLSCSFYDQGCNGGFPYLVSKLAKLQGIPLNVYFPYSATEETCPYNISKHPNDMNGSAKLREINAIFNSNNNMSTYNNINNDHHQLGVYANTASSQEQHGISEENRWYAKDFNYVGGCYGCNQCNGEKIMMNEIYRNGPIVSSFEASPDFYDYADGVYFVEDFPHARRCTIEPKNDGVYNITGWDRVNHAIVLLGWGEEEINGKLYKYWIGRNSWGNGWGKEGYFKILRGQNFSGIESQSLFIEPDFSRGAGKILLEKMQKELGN

Going from `C/N=C1\S/C(=C/c2ccc(OC)c(Cl)c2)C(=O)N1C` to `COc1cc(/C=C2\Sc3ccccc3C2=O)cc(Cl)c1O`, the “% Inhibition @ 10 uM” value falls from 4.37% to -1.25%.

Going from `O=c1c(N2CCCC2)c(Cl)cnn1-c1ccccc1` to `Cc1cccn2c(=O)c(/C=C(\C#N)C(=O)N3CCCCC3)c(Oc3ccccc3)nc12`, the “% Inhibition @ 10 uM” value rises from 1.83% to 3.63%.

Going from `CC(NC=C1C(=O)NC(=O)NC1=O)c1ccccc1` (stereo not shown) to `CN1C(=O)CC2(CC(=O)N(Cc3ccccc3)C2)C1=O` (stereo not shown), the “% Inhibition @ 10 uM” value rises from 1.4% to 2.92%.

Compared with `COc1ccc(-c2noc(CNC(=O)COc3ccc(Cl)cc3C)n2)cc1`, `COc1ccc(NC(=O)COc2cc(C)ccc2C)cc1` is lower in “% Inhibition @ 10 uM” value: 0.486% for the first, -5.13% for the second.

Compared with `CCS(=O)(=O)C1=NSC2=NC(=O)/C(=C\c3ccc(OC)cc3)C(=N)N21`, `CC(C)C1=NN2C(=N)/C(=C/c3ccc(-c4cccc(C(=O)O)c4)o3)C(=O)N=C2S1` is higher in “% Inhibition @ 10 uM” value: -3.39% for the first, -1.06% for the second.

First: Cc1cc(OCC(=O)N(Cc2cccs2)C2CCS(=O)(=O)C2)ccc1Cl (stereo not shown)
Second: COC(=O)c1c(NC(=O)COc2ccc(C)c(C)c2)sc2c1CCCC2
The “% Inhibition @ 10 uM” value of the first is lower: 0.413% for the first, 11.8% for the second.

Compared with `COc1ccc2c(c1)nc(O)c1sc3ccccc3c12`, `Oc1ccccc1-c1nc2ccccc2s1` is lower in “% Inhibition @ 10 uM” value: 0.163% for the first, -2.03% for the second.

Compared with `CCc1ccc(-c2cn3c(n2)sc2cc(C(=O)OC)ccc23)cc1`, `CCOc1cc(/C=C2/C=C(c3ccc(C)cc3)OC2=O)ccc1O` is higher in “% Inhibition @ 10 uM” value: 0.0882% for the first, 2.6% for the second.

First: CC(=O)Nc1ccc(NC(=O)CN(c2ccc(F)cc2)S(=O)(=O)c2ccc(C)cc2)cc1
Second: O=C(Nc1ccccc1C(=O)O)c1ccc(NC(=O)c2ccccc2Br)cc1
The “% Inhibition @ 10 uM” value of the first is lower: -7.58% for the first, -6.74% for the second.

First: COc1cccc(C2C(C(=O)Nc3ccccc3C)=C(C)Nc3nc(CCCO)nn32)c1 (stereo not shown)
Second: CC1=C(C(=O)Nc2cccnc2)C(c2ccccn2)n2nc(-c3ccccc3)nc2N1 (stereo not shown)
The “% Inhibition @ 10 uM” value of the first is lower: -3.04% for the first, -1.55% for the second.

First: CC(C)(C)c1ccc(C(=O)N2CCN(c3nc4ccccc4s3)CC2)cc1
Second: COc1cc2ccccc2cc1C(=O)N1CCN(C)CC1
The “% Inhibition @ 10 uM” value of the first is lower: -2.39% for the first, 4% for the second.

Going from `COCCCNC(=O)c1noc2c1COc1ccc(C)cc1-2` to `CCSc1nnc(NC(=O)C2Cc3ccc(C)cc3C(=O)O2)s1` (stereo not shown), the “% Inhibition @ 10 uM” value rises from 5.1% to 5.12%.

First: CCN(Cc1ccccc1)C(=O)Cc1ccccc1
Second: CCN(C(=O)c1cccc(Br)c1)c1ccccc1
The “% Inhibition @ 10 uM” value of the first is higher: 1.91% for the first, -1.07% for the second.

First: N#CCCS(=O)(=O)c1ccc(Cl)c(Cl)c1
Second: Cc1ccc(S(N)(=O)=O)cc1NC(=O)Nc1ccc(Cl)c(Cl)c1
The “% Inhibition @ 10 uM” value of the first is higher: 6.33% for the first, 5.97% for the second.

First: NC(=O)C1CCN(C(=O)CCNS(=O)(=O)c2cc(Br)cnc2N)CC1
Second: CCC1CCCCN1S(=O)(=O)c1cc(Br)ccc1Br (stereo not shown)
The “% Inhibition @ 10 uM” value of the first is higher: 3.09% for the first, -4.7% for the second.

First: Cc1cc(C)c(C#N)c(SC/C=C/c2ccccc2)n1
Second: Cc1cc(C)n2nc(SCC(=O)N(C)c3ccccc3)nc2n1
The “% Inhibition @ 10 uM” value of the first is higher: 1.35% for the first, -7.09% for the second.

Going from `OCC1CCCN1Cc1c(F)cccc1Cl` (stereo not shown) to `CC1CCC2(CC1)SCC(=O)N2c1ccc(F)c(Cl)c1` (stereo not shown), the “% Inhibition @ 10 uM” value rises from -0.603% to -0.512%.

Compared with `CCOc1ccc(OCc2ccc(C(=O)N3CCc4ccccc4C3)cc2)cc1`, `COc1ccc(S(=O)(=O)N2CCc3ccccc3C2)cc1` is lower in “% Inhibition @ 10 uM” value: 3.72% for the first, 2.01% for the second.

Compared with `Clc1ccc(CN2CCOCC2)cc1Cl`, `CC(C)c1cc(C(N)=O)c(NC(=O)Cc2ccc(Cl)c(Cl)c2)s1` is lower in “% Inhibition @ 10 uM” value: -0.603% for the first, -5.81% for the second.

Going from `Nc1nonc1C(=O)NCCNCc1ccccc1` to `CCOC(=O)c1[nH]c(C)c(C(=O)NC(C)CCc2ccccc2)c1C` (stereo not shown), the “% Inhibition @ 10 uM” value falls from 4.96% to 1.72%.

Going from `Cn1cc(Br)c(C(=O)N2CCc3ccccc3C2)n1` to `CS(=O)(=O)N(CC(=O)Nc1ccc2c(c1)OCO2)c1ccccc1Br`, the “% Inhibition @ 10 uM” value falls from 3.65% to -2.92%.

Going from `Cc1ccc2oc(=O)c3cnn(CC(=O)NCc4ccc(C)o4)c3c2c1` to `Cc1cccc(-n2nnc(C(=O)NCCc3ccc(Cl)cc3)c2N)c1`, the “% Inhibition @ 10 uM” value rises from -3.45% to 1.58%.

Going from `Cc1ccc(CNC(=O)CCCC(=O)O)cc1` to `Cc1ccc2c(=O)cc(C(=O)Nc3sc4c(c3C(=O)NCc3ccccc3)CCCC4)oc2c1`, the “% Inhibition @ 10 uM” value rises from -4.6% to -1.47%.

Going from `Cc1nc2ccn(Cc3cccs3)c(=O)c2cc1C(=O)N1CCN(c2ncccn2)CC1` to `CC1CC(C)CN(C(=O)CSc2nc3ccsc3c(=O)n2Cc2ccccn2)C1` (stereo not shown), the “% Inhibition @ 10 uM” value rises from -3.79% to -2.03%.

First: CCCn1c(C)c(C(=O)OCC)c2cc(O)ccc21
Second: CCOC(=O)c1c(Cl)cc(C)nc1Cl
The “% Inhibition @ 10 uM” value of the first is lower: -8.67% for the first, 0.503% for the second.

Going from `O=C1c2ccc(Br)cc2C(=O)N1Cc1ccc2c(c1)OCO2` to `O=C(O)c1ccc(/C=C2/NC(=O)N(Cc3ccc(F)cc3)C2=O)cc1`, the “% Inhibition @ 10 uM” value falls from -0.105% to -3.45%.

Going from `CCCCOC(=O)Cc1c(O)nc2ccccc2c1O` to `C=CCOc1ccc(C2CC(=O)Oc3c2c(O)nc2ccccc32)cc1` (stereo not shown), the “% Inhibition @ 10 uM” value falls from -0.712% to -4.11%.

Going from `COc1cccc(NC(=O)c2cc3c(C)nn(-c4ccccc4)c3s2)c1` to `Cc1cc(C)cc(NC(=O)c2ccc(-c3ccccc3)cc2)c1`, the “% Inhibition @ 10 uM” value rises from 1.34% to 5.29%.

First: Fc1ccc(CCNC2CCN(Cc3ccccc3)CC2)cc1
Second: Cc1ccc(-c2nnc(SCc3ccccc3)o2)cc1
The “% Inhibition @ 10 uM” value of the first is lower: 0.565% for the first, 1.46% for the second.

First: O=C1CSC(=O)N1CC(O)Cn1c2ccc(Cl)cc2c2cc(Cl)ccc21 (stereo not shown)
Second: COc1cccc2cc(NC(=O)/C=C/c3cccc(Cl)c3Cl)c(=O)oc12
The “% Inhibition @ 10 uM” value of the first is lower: -2.87% for the first, 10.4% for the second.

Compared with `COC(=O)c1cc(S(=O)(=O)N(C)CC2COc3ccccc3O2)cn1C` (stereo not shown), `COc1ccc(S(=O)(=O)N(C)CC(=O)N2CCN(c3ccccc3)CC2)cc1OC` is higher in “% Inhibition @ 10 uM” value: 1.93% for the first, 2.84% for the second.

Compared with `CCOc1ccccc1NC(=O)c1cccc(C)c1`, `O=C(Nc1ccc(Br)cn1)c1ccc(Oc2ccccc2)cc1` is lower in “% Inhibition @ 10 uM” value: 1.38% for the first, -2.8% for the second.

Going from `COc1ccc(CCNC2=Nc3ccccc3CCC2)cc1OC` to `COc1ccc(C2CC(=O)C(/C=N/c3cc(C)cc(C)c3)=C(O)C2)cc1OC` (stereo not shown), the “% Inhibition @ 10 uM” value rises from -2.78% to 1.35%.

Compared with `CCCCN(C)C(=O)Cn1nc(C)c2c(C)n(-c3ccccc3)nc2c1=O`, `Cn1c(=O)c2c(nc(Cl)n2CC(=O)c2ccccc2)n(C)c1=O` is higher in “% Inhibition @ 10 uM” value: -1.39% for the first, 14.6% for the second.

First: CC(C)CCNC(=O)c1[nH]ncc1[N+](=O)[O-]
Second: O=C(c1ccc([N+](=O)[O-])c(Br)c1)N(c1ccccn1)c1ccccn1
The “% Inhibition @ 10 uM” value of the first is higher: -0.591% for the first, -5.23% for the second.

Going from `COc1cnn(C2CCCCC2)c(=O)c1O` to `Cc1cc(C(=O)N(C)C2CCCCC2)on1`, the “% Inhibition @ 10 uM” value rises from -1.22% to -0.0115%.

Compared with `CCOc1ccccc1-n1nnc(S(=O)(=O)c2ccc(CC)cc2)c1N`, `CCc1ccc(C2c3c(oc4ccccc4c3=O)C(=O)N2c2nnc(C(C)C)s2)cc1` (stereo not shown) is higher in “% Inhibition @ 10 uM” value: -1.71% for the first, 5.78% for the second.

Compared with `COc1ccc(Br)cc1Cc1nc(C)cc(Cl)n1`, `COc1ccc(Cl)cc1C(=O)Nc1ccc(N(C)C)cc1` is lower in “% Inhibition @ 10 uM” value: 1.84% for the first, -1.2% for the second.

Compared with `CC1CCC(NC(=O)c2cc(-c3ccc(Br)cc3)[nH]n2)CC1` (stereo not shown), `CC1CC(C)CN(c2ncnc3onc(-c4ccc(F)cc4)c23)C1` (stereo not shown) is lower in “% Inhibition @ 10 uM” value: 3.64% for the first, 3.6% for the second.

Going from `Cc1ccc(/C=C(\C#N)C(=O)Nc2nc3ccccc3s2)o1` to `COc1ccc(-c2cc(C(=O)Nc3ccccc3O)c3ccccc3n2)cc1`, the “% Inhibition @ 10 uM” value rises from -1.6% to 7.42%.

First: CC(C)C1C(C#N)=C(N)OC2=C1C(=O)CCC2 (stereo not shown)
Second: CC1(C)CC(=O)C2=C(C1)N(c1sc3c(c1C#N)CCCC3)C(N)=C(C#N)C2c1ccc2c(c1)OCO2 (stereo not shown)
The “% Inhibition @ 10 uM” value of the first is higher: -3.49% for the first, -6.17% for the second.

First: CS(=O)(=O)N1N=C(c2ccccc2)CC1c1ccccc1 (stereo not shown)
Second: O=C(NCc1ccccc1Cl)C(NS(=O)(=O)c1cccc2nsnc12)c1ccccc1 (stereo not shown)
The “% Inhibition @ 10 uM” value of the first is lower: -12.3% for the first, -3.23% for the second.

First: O=C(Nc1ccc(S(=O)(=O)N2CCOCC2)cc1)C(c1ccccc1)c1ccccc1
Second: O=C(Nc1ccccc1)c1ccccc1NC(=O)c1ccccc1C(=O)O
The “% Inhibition @ 10 uM” value of the first is higher: 6.17% for the first, 3.83% for the second.

Compared with `Nc1c(C(=O)NCc2ccccn2)nnn1-c1ccc(OC(F)(F)F)cc1`, `Cc1ccccc1-n1nnc(-c2nc(-c3ccccc3F)no2)c1N` is lower in “% Inhibition @ 10 uM” value: 1.24% for the first, 1.13% for the second.

First: CC(C)(C)CC(C)(C)NC(=O)CSc1nnc(-c2ccco2)n1-c1ccccc1
Second: CN(CC(=O)NCc1ccccc1Cl)S(=O)(=O)c1cccc2nsnc12
The “% Inhibition @ 10 uM” value of the first is higher: 2.18% for the first, 0.317% for the second.

First: O=c1c2ccccc2nc(/C=C/c2cc(Br)cc(Br)c2O)n1-c1ccccc1
Second: O=C1c2ccccc2-c2nc3ncnn3c(-c3ccc(F)cc3)c21
The “% Inhibition @ 10 uM” value of the first is higher: 9.77% for the first, -2.68% for the second.

Going from `CCCC(=O)n1nc(-c2cccnc2)nc1N` to `Cc1oc(-c2ccc(Cl)cc2)nc1CS(=O)CC(=O)N1CCC2(CC1)OCCO2` (stereo not shown), the “% Inhibition @ 10 uM” value rises from -1.11% to -1.05%.

Compared with `N#C/C(=C\C=C\c1ccccc1)c1nc(-c2ccc(Cl)cc2)cs1`, `CNCc1ccccc1Sc1cc(O)ccc1O` is higher in “% Inhibition @ 10 uM” value: -9.87% for the first, -3.65% for the second.

Going from `O=C(O)C1CCC(C/N=c2\c(O)c(O)\c2=N/C2CCCCC2)CC1` (stereo not shown) to `CNc1cnn(C23CC4CC(CC(CC(=O)O)(C4)C2)C3)c(=O)c1Cl`, the “% Inhibition @ 10 uM” value falls from 14% to 0.0579%.

First: O=C(O)/C=C\C(=O)Nc1ccc(Cl)c(Cl)c1
Second: C=CCNC(=O)C1CC(c2ccccc2OC)=NO1 (stereo not shown)
The “% Inhibition @ 10 uM” value of the first is lower: 3.1% for the first, 6.22% for the second.

Compared with `COc1ccc2cc([C@H](C)OC(=O)c3c(C)ncc4c3COC(C)OC4)ccc2c1` (stereo partly shown), `COc1ccc(OCC(O)CN2CCC(C)CC2)cc1` (stereo not shown) is lower in “% Inhibition @ 10 uM” value: 4.94% for the first, -0.268% for the second.

With `Cc1cc(C)c2c(n1)SCC(=O)N2CCCC(=O)NCCCN1CC(C)CC(C)C1` (stereo not shown) the “% Inhibition @ 10 uM” value was -6.01%.
